In PubChem BioAssay AID504832 (National Center for Advancing Translational Sciences (NCATS), 2011):
About 18,000 (5.8%) of roughly 310,000 compounds were called active. Inconclusive results, whose numbers are uncertain, are shown with a selection of clear calls. Calls follow the shape of the dose curve; as a rule, active = well fitted inhibition curve with a large enough effect; inconclusive = small, poorly fitted or top-dose-only effect, or another doubt; inactive = no such curve, though single readings can be large or run the other way. Potencies of inconclusive entries are left out as doubtful fits.

Test: Primary qHTS for delayed death inhibitors of the malarial parasite plastid, 48 hour incubation
Conditions: P. falciparum luciferase growth in erythrocytes; series mostly up to 28.7 µM; activity change, negative = inhibition: at the top concentration
Outline: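 Here the parasites carry a stable luciferase gene and grow inside erythrocytes in Albumax-based RPMI medium with compound for one erythrocytic cycle. Activity is scored as loss of luminescent signal.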
% is scaled to controls: 0 for no effect and ±100 for the full control effect; potency is read from the fitted curve at half-maximal effect; tags tell the direction and shape of the fitted curve.

Compound | Potency | activity change, negative = inhibition
CC1(C)Cc2c(c(N3CCOCC3)nc3sc4c(NCC5CCCO5)nnnc4c23)CS1 (stereo not drawn) | inconclusive [inhibitor, full curve] | 
Cc1cccn2c(=O)nc(SCC(=O)N3CCOCC3)nc12 |  | inactive: 59.6%
CCOC(=O)CSc1nc2c(sc(=S)n2-c2ccccc2)c(=O)n1-c1ccc(OC)cc1OC | active: 10.4 µM | 
CC1CN(C(=S)NC(=O)c2cccc([N+](=O)[O-])c2)CC(C)O1 (stereo not drawn) | inconclusive [inhibitor, single point] | 
Cc1ccc(-c2nnc(COC(=O)c3ccco3)o2)cc1 |  | inactive: 24.4%
CCN1C(=O)c2cccc3c(NC(=O)c4ccc(S(=O)(=O)N(C)C)cc4)ccc1c23 | active: 11.7 µM | 
COc1ccc(C(=O)N2CC3(CC(c4cccc(NC(=O)CC(c5ccccc5)c5ccccc5)c4)=NO3)C[C@H]2C(N)=O)cc1 (stereo partly drawn) | inconclusive [inhibitor, single point] | 
CNc1oc(-c2ccco2)nc1C#N |  | inactive: 11.9%
COc1cccc(-c2ccc3ncnc(NCc4cccnc4)c3c2)c1 | inconclusive [inhibitor, single point] | 
CC#CC[N+](C)(C)CCCCCCCCCCCC | active: 2.94 µM | 
Cc1cc(C)n2c(SCC(=O)Nc3ccc(F)cc3)nnc2n1 |  | inactive: 107%
Cc1ccc2c(c1)nnn2C1CCN(CC(=O)Nc2ccc3c(c2)OCCO3)CC1 |  | inactive: -28.1%
CN(C)CCCN1C(=O)C(=O)/C(=C(/O)c2ccc(OCc3ccccc3)cc2)C1c1cccnc1 (stereo not drawn) |  | inactive: -1.76%
O=C1OC(c2cccs2)=N/C1=C\c1ccc(-c2ccccc2Cl)o1 |  | inactive: 26.9%
COc1ccc(Nc2nc(N3CCN(S(C)(=O)=O)CC3)nc3ccccc23)c(OC)c1 | inconclusive [inhibitor, partial curve, poor fit] | 
CN(CC(=O)Nc1ccccc1Br)C(=O)c1cccnc1Nc1cccc(C(F)(F)F)c1 | inconclusive [inhibitor, partial curve, poor fit] | 
CCOC(=O)c1c(NC(=O)C2=C(C)NC(=S)NC2c2ccc(F)cc2)sc(C)c1C (stereo not drawn) | inconclusive [inhibitor, single point] | 
CCOc1ccccc1NC(=O)c1cc(SC)ccc1Cl |  | inactive: -10.3%
COc1ccc(CC(=O)Nc2ccccc2N2CCCC2)cc1 | inconclusive [inhibitor, partial curve, poor fit] | 
CCN(CC)S(=O)(=O)c1ccc(N2CCOCC2)c(NC(=O)c2cc(C)cc(C)c2)c1 | active: 10.4 µM | 
COc1ccc(OC)c(NC(=O)c2cc(OC(C)=O)cc(C(=O)Nc3cc(OC)ccc3OC)c2)c1 |  | inactive: -28%
CC(C)Nc1nc(-c2ccncc2)nc(-c2ccccc2)c1C#N | inconclusive [inhibitor, full curve] | 
O=C(NCC(c1ccc(F)cc1)N1CCOCC1)c1cccnc1Sc1ccc(Cl)cc1 (stereo not drawn) | inconclusive [inhibitor, partial curve, poor fit] | 
Cn1c(=NC(=O)CS(=O)(=O)c2ccccc2)sc2cc([N+](=O)[O-])ccc21 | active: 11.7 µM | 
CCOC(=O)c1cnc(COc2ccc(OC)cc2)[nH]c1=O |  | inactive: -0.389%

Compound | Potency | activity change, negative = inhibition
CC/C(=N/O)C(=O)c1ccc(Br)cc1 |  | inactive: 29.9%
Cc1c(C)c2c(OCC(=O)N[C@@H](C)C(=O)O)cc3c(c2oc1=O)CCC(C)(C)O3 |  | inactive: -7.1%
O=[N+]([O-])c1ccc(-c2ccc(/C=N/Nc3nc(N4CCCCC4)nc(N4CCCCC4)n3)o2)cc1 | inconclusive [inhibitor, full curve] | 
COc1ccc(N(C(=O)c2ccco2)C(C(=O)NC2CCCC2)c2ccc(N(C)C)cc2)cc1OC (stereo not drawn) | active: 13.1 µM | 
O=C(Nc1ccc(Cl)cc1C(=O)NCc1cccnc1)c1ccc(Cl)cc1Cl | active: 8.28 µM | 
COc1cc(C(=O)OCC(=O)N(CC(C)C)C2CCS(=O)(=O)C2)cc(OC)c1C (stereo not drawn) | inconclusive [inhibitor, single point] | 
CC(C)(C)c1nc2c(Br)cc(Br)cc2c(=O)o1 |  | inactive: 11.9%
CSCC(O)Cn1[nH]c(=O)c2cc(Cl)c(Cl)cc2c1=O (stereo not drawn) | inconclusive [inhibitor, single point] | 
O=C(CSc1nc2ccccc2c(=O)n1-c1ccccc1)N1CCc2ccccc2C1 | inconclusive [inhibitor, partial curve] | 
C=CCn1c(=O)c2ccccc2n2c(SCc3csc(-c4ccccc4)n3)nnc12 | inconclusive [inhibitor, single point] | 
COc1ccc(N=C2O/C(=C/c3sc(=S)n(CC4CCCO4)c3O)N=C2C#N)cc1 (stereo not drawn) | inconclusive [inhibitor, partial curve] | 
CCCOc1ccccc1N/C(N)=N/c1nc(C)cc(C)n1 | active: 14.7 µM | 
CCC(C)(C)C1CCC(NC(=O)N2CCN(c3ccccc3O)CC2)CC1 (stereo not drawn) | inconclusive [inhibitor, single point] | 
COC(=O)C1=NN(c2ccccc2)C2(S1)SC(C(C)=O)=C(C)N2c1ccccc1 (stereo not drawn) | inconclusive [inhibitor, partial curve] | 
O=C(CSc1nccn1Cc1ccccc1)Nc1ccccc1 |  | inactive: -1.71%
COc1cccc(NC(=O)c2c(C)nn(-c3ccccc3)c2Cl)c1 |  | inactive: 32%
CC(=O)c1ccc(S(=O)(=O)Nc2cccc(-c3cn4c(n3)SCC4)c2)cc1 |  | inactive: 3.06%
COc1ccc(C(=O)NCC(c2ccco2)N2CCc3ccccc32)cc1OC (stereo not drawn) | inconclusive [inhibitor, partial curve] | 
N=c1c2c3c(sc2ncn1Cc1ccco1)CCCCC3 |  | inactive: 42.7%
CC(=O)N1CCc2cc(Br)cc(S(=O)(=O)N3CCCCC3)c21 | active: 2.62 µM | 
Cc1ccc(C(=O)/C=C/c2cn(CC(O)CN3CCOCC3)c3ccccc23)cc1 (stereo not drawn) | inconclusive [inhibitor, single point] | 
COc1cc(OC)c2cc(C(=O)N/N=C/c3cccc(OC)c3O)[nH]c2c1 | inconclusive [inhibitor, full curve] | 
COc1ccc2[nH]c(=O)c(CN(Cc3nnnn3Cc3ccco3)C3CCCCC3)cc2c1 | inconclusive [inhibitor, partial curve, poor fit] | 
Clc1ccccc1-c1nnc2n1CCCCC2 |  | inactive: 34.3%
Cc1ccc(CC(=O)Nc2cc(C)on2)cc1 |  | inactive: 31.2%

Compound | Potency | activity change, negative = inhibition
O=C(NC(=S)Nc1ccc(Cl)cn1)c1cc([N+](=O)[O-])ccc1N1CCOCC1 | inconclusive [inhibitor, single point] | 
CN(C)CCO[C@@H](c1ccc(Cl)cc1)c1ccccn1 |  | inactive: -29.5%
O=C(CCCN1C(=O)/C(=C/c2cccc(Br)c2)SC1=S)NCCCN1CCOCC1 | inconclusive [inhibitor, partial curve] | 
CCOC(=O)c1cccc(N2C(N)=NC(N)=NC2(C)C)c1 | inconclusive [inhibitor, full curve] | 
Cc1ccc(CSc2nnc(-c3cccs3)n2C)cc1 | active: 11.7 µM | 
O=C1NC(=Nc2ccccc2)SC1Cc1cccc(Cl)c1Cl (stereo not drawn) | inconclusive [inhibitor, single point] | 
COc1ccc(/C=N/Nc2nc3ccccc3[nH]2)cc1OC | active: 0.465 µM | 
CN(C)Cc1c(O)ccc2c1O/C(=C\C=C\c1ccccc1)C2=O | active: 1.65 µM | 
CCOC(=O)CSc1nc2cc(C(=O)N3CCCC3)ccc2c(=O)n1Cc1ccccc1 | inconclusive [inhibitor, single point] | 
COc1cc2c(cc1OC)C1Cc3ccc(OC)c(OC)c3CN1CC2 (stereo not drawn) | active: 1.31 µM | 
CC(=O)Nc1ccc(S(=O)(=O)N(C)CC(=O)Nc2cccc(S(=O)(=O)N3CCCC3)c2)cc1 | inconclusive [inhibitor, single point] | 
N#Cc1ccccc1Sc1ccccc1C(=O)NCC(c1ccco1)N1CCCC1 (stereo not drawn) | inconclusive [inhibitor, single point] | 
Cc1cc(Cl)ccc1NC(=S)NCCC(c1ccccc1)c1ccccc1 | inconclusive [inhibitor, single point] | 
Cc1ccc(C(=O)Cn2c3[n+](c4ccccc42)CC(O)CS3)cc1 (stereo not drawn) | inconclusive [inhibitor, full curve] | 
O=C(Nc1ccc(-c2ccc(N3CCCCC3)nn2)cc1)c1ccco1 | inconclusive [inhibitor, single point] | 
Cc1ccc(C(=O)N(Cc2cccnc2)Cc2cc3cc(C)ccc3n3nnnc23)cc1 | inconclusive [inhibitor, partial curve, poor fit] | 
CCCOC(=O)c1ccc(NC(=O)/C=C/c2cccs2)cc1 | inconclusive [inhibitor, partial curve, poor fit] | 
COc1cc(NC(=O)c2ccco2)c(OC)cc1NC(=O)c1cc(OC)c(OC)c(OC)c1 | inconclusive [inhibitor, partial curve, poor fit] | 
O=C(Cn1cnc2ccccc21)OCC(=O)N1CCc2ccccc2C1 |  | inactive: 1.02%
FC(F)(F)c1cccc(Cc2noc(CN3C[C@@H]4CCC[C@H]3C4)n2)c1 | inconclusive [inhibitor, single point] | 
CCOC(=O)N1CCN(S(=O)(=O)c2ccc3c(c2)CCN3C(=O)C2CC2)CC1 | inconclusive [inhibitor, single point] | 
OC(c1ccccn1)c1c[nH]c2ccccc12 (stereo not drawn) |  | inactive: 24.1%
COC(=O)c1[nH]c2c(c1C)C(=O)CC(c1cc(OC)ccc1OC)C2 (stereo not drawn) | inconclusive [inhibitor, single point] | 
